Test [1] has as its target T1, VHA-c"1 (V-ATPase proteolipid subunit c", isoform 1) fused to CFP or YFP (A. thaliana) (UniProt Q9SZY7).
T1 sequence: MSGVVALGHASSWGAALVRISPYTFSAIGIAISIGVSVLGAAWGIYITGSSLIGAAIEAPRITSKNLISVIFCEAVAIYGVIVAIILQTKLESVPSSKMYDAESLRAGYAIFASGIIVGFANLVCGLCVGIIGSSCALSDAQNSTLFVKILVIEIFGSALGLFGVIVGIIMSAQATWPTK
The test is described as follows: FRET or BRET; in vivo FRET by sensitized acceptor emission (confocal laser scanning microscopy) in co-transfected A. thaliana mesophyll protoplasts; CFP fusion as donor, YFP fusion as acceptor; a FRET value of 8-10% is taken as background. Background: Bioluminescence resonance energy transfer reports proximity on the nanometre scale.

For test [2], the target named is VHA-e1 (V-ATPase subunit e, isoform 1) fused to CFP or YFP (A. thaliana) (UniProt Q9FLN5). Described as above.
The target of test [3] is T2, VHA-e2 (V-ATPase subunit e, isoform 2) fused to CFP or YFP (A. thaliana) (UniProt Q9SZ13).
T2 sequence: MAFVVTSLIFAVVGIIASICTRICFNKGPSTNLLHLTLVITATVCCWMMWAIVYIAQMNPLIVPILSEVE
Described as above.

Test [4] deals with T3, VHA-c3 (V-ATPase proteolipid subunit c, isoform 3) fused to CFP or YFP (A. thaliana) (UniProt P0DH93).
T3 sequence: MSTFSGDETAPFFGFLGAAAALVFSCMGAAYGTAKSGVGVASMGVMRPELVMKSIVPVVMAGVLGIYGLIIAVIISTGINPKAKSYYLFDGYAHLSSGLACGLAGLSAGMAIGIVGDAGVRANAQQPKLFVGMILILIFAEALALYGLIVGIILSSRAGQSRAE
The test is described as above.

Test [5] concerns the target VHA-c"1 fused to the N-terminal or the C-terminal fragment of YFP (BiFC constructs) (A. thaliana) (UniProt Q9SZY7). The test is described as follows: split reporter; bimolecular fluorescence complementation in A. thaliana mesophyll protoplasts; YFP fragments fused to the C-terminus of VHA-c"; YFP fluorescence normalised to co-transfected 35S-CFP.

The results in this text go back to publication PMC2424043, “Organelle-specific isoenzymes of plant V-ATPase as revealed by in vivo-FRET analysis” (BMC Cell Biology, 2008).

Results are given in words; binding and its absence hold for the method and conditions named. Binding seen in cells or lysates may run through a third protein. Some binding calls cover weakened binding; strength is not graded here. Where a sequence is shown, tags or fusion partners need not be part of it.

B1: VHA-e1 (V-ATPase subunit e, isoform 1) fused to CFP or YFP (natural protein, A. thaliana, UniProt Q9FLN5 1-70, looked up)
chain: MGFLITTLIFVVVGIIASLCVRICCNRGPSTNLLHLTLVITATVCCWMMWAIVYIAQMNPLIVPILSETE
notes: VHA-e1, A. thaliana, At5g55290, open reading frame without the stop codon; One molecule for the CFP and the YFP fusion; also called VHA-e isoform 1; AtVHA-e1; source: A. thaliana mesophyll protoplasts, transiently transfected, in living cells; not shown: CFP or YFP, C-terminal, kept
For the molecule B1, the binding result is recorded as “no binding” in test [1], “binds” in test [2] and “binds” in test [3].

B2: VHA-e2 (V-ATPase subunit e, isoform 2) fused to CFP or YFP (natural protein, A. thaliana, UniProt Q9SZ13 1-70, looked up)
chain: MAFVVTSLIFAVVGIIASICTRICFNKGPSTNLLHLTLVITATVCCWMMWAIVYIAQMNPLIVPILSEVE
notes: VHA-e2, A. thaliana, At4g26710, open reading frame without the stop codon; One molecule for the CFP and the YFP fusion; also called VHA-e isoform 2; VHA-e2-CFP; source: A. thaliana mesophyll protoplasts, transiently transfected, in living cells; not shown: CFP or YFP, C-terminal, kept
Take B2: the binding entry in test [3] is “binds”.

B3: hybrid proteolipid subunit (VHA-c helices 3-4 and VHA-c"1 helices 3-4) fused to CFP (protein, UniProt P0DH93 80-164; Q9SZY7 88-180)
chain: NPKAKSYYLFDGYAHLSSGLACGLAGLSAGMAIGIVGDAGVRANAQQPKLFVGMILILIFAEALALYGLIVGIILSSRAGQSRAEQTKLESVPSSKMYDAESLRAGYAIFASGIIVGFANLVCGLCVGIIGSSCALSDAQNSTLFVKILVIEIFGSALGLFGVIVGIIMSAQATWPTK
For B3, the binding entry in test [4] was “binds”.

B4: VHA-c"_(trunc) (third and fourth helices of VHA-c"1) fused to CFP (domain or fragment, A. thaliana, UniProt Q9SZY7 88-180, looked up)
chain: QTKLESVPSSKMYDAESLRAGYAIFASGIIVGFANLVCGLCVGIIGSSCALSDAQNSTLFVKILVIEIFGSALGLFGVIVGIIMSAQATWPTK
notes: VHA-c"1 aa 88-180 (helices 3 and 4), A. thaliana; Intermediate construct of the hybrid in vector 35S-CFP-C; fused to the C-terminus of the fluorescent protein; also called truncated VHA-c"; VHA-c"1_(trunc); source: A. thaliana mesophyll protoplasts, transiently transfected, in living cells; not shown: CFP, N-terminal, kept
For the molecule B4, the binding entry in test [4] is recorded as “binds”.

B5: VHA-c"1 (V-ATPase proteolipid subunit c", isoform 1) fused to CFP or YFP (protein, UniProt Q9SZY7 1-180)
chain: MSGVVALGHASSWGAALVRISPYTFSAIGIAISIGVSVLGAAWGIYITGSSLIGAAIEAPRITSKNLISVIFCEAVAIYGVIVAIILQTKLESVPSSKMYDAESLRAGYAIFASGIIVGFANLVCGLCVGIIGSSCALSDAQNSTLFVKILVIEIFGSALGLFGVIVGIIMSAQATWPTK
On to B5, for which the values for the binding entry in test [1] and in test [4] were “no binding” and “binds”, respectively.

B6: VHA-c"1 fused to the N-terminal or the C-terminal fragment of YFP (BiFC constructs) (protein, UniProt Q9SZY7 1-180)
chain: MSGVVALGHASSWGAALVRISPYTFSAIGIAISIGVSVLGAAWGIYITGSSLIGAAIEAPRITSKNLISVIFCEAVAIYGVIVAIILQTKLESVPSSKMYDAESLRAGYAIFASGIIVGFANLVCGLCVGIIGSSCALSDAQNSTLFVKILVIEIFGSALGLFGVIVGIIMSAQATWPTK
For the molecule B6, in test [5], the binding result is reported as “no binding”.
